# Measured values taken from paper PMC4336329 (PLoS ONE, 2015).
# Screen size: about 310,000 compounds; about 2,200 (0.71%) showed an effect of 50% or more. Effects have a minus sign here. The list shows a part of the results.
# Molecular target: human ether-à-go-go-related gene (hERG) potassium channel (human, UniProt Q12809)
# Experiment: primary screen, population patch clamp on CHO cells stably expressing hERG
# Chain of human ether-à-go-go-related gene (hERG) potassium channel (Q12809 whole entry, looked up): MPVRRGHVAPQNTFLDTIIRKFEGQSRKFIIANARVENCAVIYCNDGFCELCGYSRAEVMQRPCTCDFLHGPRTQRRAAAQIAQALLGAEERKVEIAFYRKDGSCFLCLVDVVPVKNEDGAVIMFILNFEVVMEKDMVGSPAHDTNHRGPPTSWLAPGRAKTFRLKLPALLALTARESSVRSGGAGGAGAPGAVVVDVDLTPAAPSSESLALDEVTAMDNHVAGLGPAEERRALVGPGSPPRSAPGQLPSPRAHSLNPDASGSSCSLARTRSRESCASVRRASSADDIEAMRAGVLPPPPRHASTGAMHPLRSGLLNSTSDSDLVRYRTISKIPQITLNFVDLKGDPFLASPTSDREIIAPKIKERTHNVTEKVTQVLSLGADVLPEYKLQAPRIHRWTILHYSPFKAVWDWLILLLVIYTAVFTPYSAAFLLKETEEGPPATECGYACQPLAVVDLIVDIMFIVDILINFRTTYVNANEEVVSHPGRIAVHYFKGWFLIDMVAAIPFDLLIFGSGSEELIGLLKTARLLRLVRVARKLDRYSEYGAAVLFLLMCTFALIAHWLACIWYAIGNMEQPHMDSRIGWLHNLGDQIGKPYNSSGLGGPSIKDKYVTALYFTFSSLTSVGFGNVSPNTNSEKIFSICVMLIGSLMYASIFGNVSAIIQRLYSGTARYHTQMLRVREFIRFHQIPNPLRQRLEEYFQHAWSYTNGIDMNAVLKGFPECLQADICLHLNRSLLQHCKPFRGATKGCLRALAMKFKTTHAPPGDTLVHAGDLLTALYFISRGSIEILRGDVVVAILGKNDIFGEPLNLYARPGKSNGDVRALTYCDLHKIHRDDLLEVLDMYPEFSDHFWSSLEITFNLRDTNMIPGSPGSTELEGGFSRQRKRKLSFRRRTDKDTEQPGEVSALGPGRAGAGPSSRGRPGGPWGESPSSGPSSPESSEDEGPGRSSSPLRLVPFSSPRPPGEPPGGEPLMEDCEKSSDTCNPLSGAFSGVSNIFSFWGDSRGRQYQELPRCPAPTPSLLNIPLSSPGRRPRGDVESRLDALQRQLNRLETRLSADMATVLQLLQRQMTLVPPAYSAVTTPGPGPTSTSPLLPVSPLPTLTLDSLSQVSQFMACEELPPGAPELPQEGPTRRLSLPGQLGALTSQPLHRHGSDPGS
row,SMILES,"hERG current change (%, negative = inhibition) at 1uM [%]"
1,O=C(c1ccccc1F)N1CCN=C1SCc1cccnc1,1.86
2,COC(=O)Cc1cnc(NC(=O)CSc2nc(C(C)C)cc(=O)[nH]2)s1,23
3,Cc1ccc2c(C(=O)CN3CCC(C(N)=O)CC3)c(C)[nH]c2c1,10.3
4,O=C(CN1CCN(C(=O)c2ccco2)CC1)Nc1ccc2c(c1)OCO2,-8.79
5,Cc1cc(OC(C)C(=O)NC2CCN(Cc3ccccc3)CC2)c2c(C)cc(=O)oc2c1 (centres unmarked),4.5
6,O=C(CSc1cn[nH]n1)Nc1ccc(Cl)cc1Cl,12.5
7,CCOc1ccc(-c2nnc3ccc(SCc4ccc(C(=O)OC)o4)nn23)cc1,7.54
8,C/C(Cc1ccccc1)=N\NC(=O)CNC(=O)/C=C\c1ccccc1,12.4
9,COc1cc(/C=C/C(=O)O)cc(S(=O)(=O)NCCCC(=O)O)c1OC,17
10,Cn1c2ccc(Cl)cc2c2nc3ccccc3nc21,21
11,COc1ccc([C@@H]2CC=C(C(=O)O)[C@H](c3ccc(Cl)cc3)N2S(=O)(=O)c2ccc(Cl)cc2)cc1,7.17
12,Cc1cc(C)nc(N2CCN(c3ncnc4c3cnn4Cc3ccc(Cl)cc3Cl)CC2)n1,12.7
13,COc1cccc(CNS(=O)(=O)c2c(C)nc3sccn3c2=O)c1,5.45
14,Cc1cc(NC(=O)c2ccccc2Cl)ccc1NC(=O)c1ccccc1Cl,13
15,Cc1ccc(NC(=O)CN(C)C(=O)CSc2nc3ccccc3c(=O)n2Cc2ccco2)cc1,-41.8
16,O=C(Nc1ccc(NC(=O)c2ccccc2)nc1)c1ccncc1,-1.7
17,CC(=O)NC(C)c1cc(F)c2cccnc2c1O (centres unmarked),-4.05
18,CCOC(=O)C1=C(O)C(=O)N(c2ccccc2)C1c1cccc([N+](=O)[O-])c1 (centres unmarked),-2.68
19,Cc1c(Cl)cnc(NC(=O)COC(=O)C2CC3CCCC(C2)C3=O)c1Cl (centres unmarked),14.9

row,SMILES,"hERG current change (%, negative = inhibition) at 1uM [%]"
1,Cc1ccc(NC(=O)c2cc(S(=O)(=O)N3CCOCC3)cs2)cc1,0.623
2,CCN(CC)C(=O)C(=O)c1cccn1-c1ccccc1C#N,3.51
3,CNC(=O)c1csc(-c2cccs2)n1,12.6
4,N#CCCn1c(O)c(N=NC(=O)CNC(=O)c2cccs2)c2ccccc21,0.435
5,N#Cc1cc([N+](=O)[O-])ccc1N1CCCC1,-12.3
6,N#CC1CN(Cc2ccccc2)CN(Cc2ccccc2)C1,10.9
7,Cc1ccc(N2CCN(CC(O)COC3CCCCC3)CC2)cc1 (centres unmarked),-14.3
8,COc1ccccc1CNC(=O)COc1ccc(S(=O)(=O)N2CCCC2)cc1,4.11
9,Cc1cc(-c2n[nH]c(=S)n2/N=C/c2ccc(Cl)c([N+](=O)[O-])c2)n[nH]1,11.9
10,CC(=C1C(=O)c2ccccc2C1=O)N1CCN(c2ccc(F)cc2)CC1,-4.99
11,COc1ccc2[nH]c(C(O)(Cc3cccnc3)Cc3cccnc3)cc2c1.O,10.5
12,NC(=O)c1cccc(S(=O)(=O)N2CC(c3ccccc3)CC2=O)c1 (centres unmarked),-1.54
13,O=C1CCN(Cc2ccc(O)cc2)CCN1[C@H](CO)c1ccccc1,0.855
14,COc1ccc(CNC(=O)CN(C(=O)c2snc(C(N)=O)c2N)c2ccc(F)cc2)cc1,8.84
15,Nc1ccccc1NC(=O)CCn1c(=S)[nH]c2ccccc2c1=O,11.4
16,N#Cc1ccc(NC(=O)CSc2nc3[nH]c(=O)cc(O)c3s2)cc1,11.8
17,CC(C)CCC(CCNCc1ccccn1)c1ccc2c(c1)OCO2.Cl (centres unmarked),-79.1
18,CC(C)(C)c1ccc(-c2nnc(SCC(=O)NC3CCS(=O)(=O)C3)n2N)cc1 (centres unmarked),-5.28
19,COc1cc(/C=C2/C(=O)NN(c3ccc(F)cc3)C2=O)cc([N+](=O)[O-])c1O,8.07

row,SMILES,"hERG current change (%, negative = inhibition) at 1uM [%]"
1,O=C(O)c1nn(-c2ccccc2C(F)(F)F)cc1O,-4.48
2,COCCn1nnnc1C(c1cccs1)N1CCN(c2ccccc2)CC1 (centres unmarked),-1.61
3,CCOCCCNC(=O)c1cc2c(=O)n(CC)c3ccccc3c2s1,-0.72
4,Cl.OC(CN1CCNCC1)Cn1c2ccccc2c2ccccc21 (centres unmarked),8.86
5,CCCC[C@@H]1CNCCN1CCc1cc(C(F)(F)F)cc(C(F)(F)F)c1,11.7
6,Cc1cc(-c2nnc3n2N=C(c2ccccc2)CS3)n[nH]1,9.47
7,COc1ccc(C2NCCn3cccc32)cc1.O=C(O)/C=C\C(=O)O (centres unmarked),0.692
8,Cc1cc(NC(=O)CN2CCc3ccccc3C2)nc2c1c(=O)oc1ccccc12,5.95
9,O=C(COc1ccccc1)Nc1cccc(-c2nn[nH]n2)c1,13.2
10,CCCCOP(=O)(c1ccc(N(C)C)cc1)C(O)c1ccncc1 (centres unmarked),5.93
11,CCN(CC)CCNCc1cc(Cl)c(OCC(=O)Nc2ccccc2)c(OC)c1.Cl,2.85
12,Cn1cc(CCC(=O)N2CCCC(CCC(=O)NCc3ccc(F)c(F)c3)C2)cn1 (centres unmarked),1.13
13,Cc1noc(C)c1C(=O)NCCc1ccc(Cl)cc1,-2.23
14,CCCCN(C(=O)CSc1nnc(Nc2ccccc2)s1)c1c(N)n(CCC)c(=O)[nH]c1=O,-0.396
15,CCOc1ccc(N=C2NC(=O)C(CC(=O)O)S2)cc1 (centres unmarked),8.34
16,CN1C(=O)CC(N2CCN(c3ccccn3)CC2)C1=O (centres unmarked),3.16
17,Cc1cc(=O)[nH]c(SCc2nc3ccc([N+](=O)[O-])cc3[nH]2)n1,2.23
18,O=C(Nc1nnc(S(=O)(=O)N2CCCC2)s1)c1ccccc1Cl,-1.16
